Screen size: about 220,000 compounds; about 16,000 (7.3%) were called active. This list was built around the results that the source calls inconclusive (neither active nor inactive); the mix of calls is not that of the screen. The call rests on the fitted dose curve; in most records, active means well fitted inhibition curve with a large enough effect (not every such curve was filed as active); inconclusive means small, poorly fitted or top-dose-only effect, or another doubt; inactive means no such curve, though single readings can be large or run the other way. Potencies beside an inconclusive call are fits to weak or partial responses and may not hold up.
Target: Aldehyde dehydrogenase 1A1 (Homo sapiens) (UniProt P00352)
Chain of UniProt P00352 (P00352 whole entry, looked up): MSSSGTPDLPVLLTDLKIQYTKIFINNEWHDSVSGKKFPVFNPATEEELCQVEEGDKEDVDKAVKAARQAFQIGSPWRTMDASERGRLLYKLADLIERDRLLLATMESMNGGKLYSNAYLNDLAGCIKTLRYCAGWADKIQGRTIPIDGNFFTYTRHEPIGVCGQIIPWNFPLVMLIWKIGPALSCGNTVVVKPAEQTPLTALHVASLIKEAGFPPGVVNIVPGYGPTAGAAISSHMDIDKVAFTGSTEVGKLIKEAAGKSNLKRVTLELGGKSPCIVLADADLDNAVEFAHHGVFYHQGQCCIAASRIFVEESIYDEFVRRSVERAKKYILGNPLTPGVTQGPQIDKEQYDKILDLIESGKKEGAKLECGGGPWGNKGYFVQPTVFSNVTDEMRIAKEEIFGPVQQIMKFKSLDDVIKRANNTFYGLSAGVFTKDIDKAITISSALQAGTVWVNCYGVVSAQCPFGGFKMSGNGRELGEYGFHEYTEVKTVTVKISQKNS
Test: qHTS Assay for Inhibitors of Aldehyde Dehydrogenase 1 (ALDH1A1)
Settings: Purified ALDH1A1, NADH fluorescence, propionaldehyde substrate; series mostly up to 75.3 µM
Potency means the concentration at half of the fitted maximal effect; tags describe the fitted curve by direction and shape.

Potency, active:
Cc1nn(-c2ccccn2)c2c1C(=O)C(Br)CC2 (centres undefined) 11.2 µM, N#Cc1c(SCC(=O)N2CCCCC2)nsc1SCC(=O)N1CCCCC1 17.8 µM, CCOC(=O)C1=C(O)c2ccccc2C(=O)/C1=C\c1ccc(CC)cc1 18.9 µM, COC(=O)CS(=O)(=O)c1nnc([C@H](Cc2ccccc2)NC(=O)OC(C)(C)C)o1 8.91 µM, Oc1ccc(N=Cc2ccc(O)c(O)c2)cc1 12.6 µM, CCC(=O)Nc1cccc(NC(=S)NC(=O)c2cccc(C)c2)c1 25.1 µM, Cc1ccc(-n2cc(-c3ccccc3)[nH]c2=O)cc1F 20 µM, O=C(CSC1=NC(=O)C(c2ccccc2)C(=O)N1)Nc1ccccc1Cl (centres undefined) 20 µM, Cc1ccc(Sc2ccc(NC(=O)CCl)cc2)cc1C 2 µM, CN(C)/C=C1\C(=O)N(c2ccc([N+](=O)[O-])cc2)N=C1c1ccccc1 25.1 µM, CCN1CCN(c2ccc(NC(=O)c3ccc([N+](=O)[O-])o3)cc2Cl)CC1 20 µM

Potency, inactive:
Cc1cccc2sc(NC(=O)CN(C)S(=O)(=O)c3ccc(Br)s3)nc12, CCNCc1nc2cc(Cl)ccc2c(=O)[nH]1, O=C1CCCCCN1C(=O)c1ccc(C(=O)N2CCCCCC2=O)cc1, CCOC(=O)CNC(=S)N1CCn2c(nc3ccccc32)C1, COc1ccc(NC(=O)Cn2nnc(-c3ccccc3NS(=O)(=O)c3ccccc3)n2)cc1, Cc1cc(Cl)c(S(=O)(=O)NCC2CCCO2)cc1OCC(N)=O (centres undefined), CCCCC(=O)N(CCOC)c1nnc(-c2ccccc2C)s1, Cc1cc(C)nc(SCC(=O)Nc2ccc(S(=O)(=O)N3CCCCC3)cc2)n1, OCCn1c(Cl)nc2ccccc21, O=C(Nc1ccccn1)c1csc2c1CCCC2, CC(C)CN1CCC2(CC1)CCN(C(=O)c1ccncc1)CC2, Cc1ccc(CCNC(=O)NC(C)(C)C)cc1, COc1c2occc2cc2ccc(=O)oc12, O=C(CN(Cc1ccc(F)cc1)C(=O)Cn1nnc2ccccc21)NCC1CCCO1 (centres undefined), Cc1c(C#N)c(NC(=O)CCl)n(Cc2ccccc2)c1C, Cc1nc2ccccc2c2c(N)c3ccccc3n12, COc1ccc(C(=O)OCC(=O)c2cc(OC)ccc2OC)c(OC)c1, NC(=O)CC[C@H](NC(=O)OCc1ccccc1)C(=O)OCc1ccc(Cl)cc1, CCOC(=O)c1cccc(NC(=O)c2cnccn2)c1

Potency, inconclusive:
Cc1ccc(Oc2ccc(NC(=O)CSc3n[nH]c(N)n3)cc2)cc1 39.8 µM [inhibitor, single point], Cc1ccc2nc3c(c(C(=O)OCC(=O)N(C)C4CCS(=O)(=O)C4)c2c1)CCCC3 (centres undefined) 39.8 µM [inhibitor, single point], CCOC(=O)C1CCN(C(=O)C2CCN(c3nc4ccc(OC)cc4s3)CC2)CC1 17.8 µM [inhibitor, partial curve], CCCc1cc(C(=O)NNC(=S)NCC)c2ccccc2n1 14.1 µM [inhibitor, partial curve], O=C1OCCN1C(=O)[C@H]1[C@H](c2ccccc2)C(c2cccc(Cl)c2)=NN1c1ccccc1 39.8 µM [inhibitor, partial curve], COc1ccc(N2CCN(Cc3nc(-c4ccc(Cl)cc4Cl)no3)CC2)cc1 39.8 µM [inhibitor, single point], O=C(C1=NN[C@@H]2C(=O)N(c3cccc(C(F)(F)F)c3)C(=O)[C@H]12)c1ccc2ccccc2n1 35.5 µM [inhibitor, single point], O=C(O)c1ccc(NCc2cccnc2)cc1 39.8 µM [inhibitor, single point], N#CC1=C(N)N=C(SCc2cccc3ccccc23)C(C(N)=O)C12CCCCC2 (centres undefined) 39.8 µM [inhibitor, single point], CC(=O)Nc1ccc(Nc2cc(C)nc3c(-c4ccc(Cl)cc4)cnn23)cc1 35.5 µM [inhibitor, single point], CC(C)n1c(=N)c(C(=O)NCCc2ccccc2)cc2c(=O)n3ccccc3nc21 31.6 µM [inhibitor, partial curve], O=C(O)Cc1ccc(N=Cc2c(O)ccc3ccccc23)cc1 22.4 µM [inhibitor, partial curve], COC(=O)c1oc2ccccc2c1-n1cccc1 39.8 µM [inhibitor, single point], CC1=C(C)/C(=N/OC(=O)c2cccc([N+](=O)[O-])c2)C=CC1=O 39.8 µM [inhibitor, single point], CCS(=O)CCSc1nc2ccccc2s1 (centres undefined) 22.4 µM [inhibitor, single point], CC(=O)c1ccc(-c2cccs2)s1 28.2 µM [inhibitor, partial curve], O=C(CSc1nc2ccc([N+](=O)[O-])cc2s1)NC1CCS(=O)(=O)C1 (centres undefined) 39.8 µM [inhibitor, single point], N#Cc1c(-c2ccc(Cl)cc2)ccn2nc(CCC(=O)O)nc12 14.1 µM [inhibitor, partial curve], COc1ccc(N2CCN(C(=O)c3ccc(NS(=O)(=O)c4cccc(F)c4)cc3)CC2)cc1 12.6 µM [inhibitor, partial curve], CCOC(=O)c1cnn(-c2ccccc2)c1NC(=O)c1ccccc1 25.1 µM [inhibitor, single point], O=C(O)c1ccc2noc(-c3ccccc3)c2c1 39.8 µM [inhibitor, single point], Cc1ccc(CCc2nnc(SCC(=O)Nc3ccccc3Cl)n2-c2ccccc2)o1 39.8 µM [inhibitor, single point], CCc1cc2cc(C)ccc2nc1SCC(=O)N1CCN(C(=O)c2ccco2)CC1 39.8 µM [inhibitor, single point], O=C(NC(=S)NCc1ccc(F)cc1)c1ccccc1 35.5 µM [inhibitor, single point], O=C(CCS(=O)(=O)Cc1ccccc1)N1CCc2ccccc2C1 25.1 µM [inhibitor, single point], O=C(NC(=S)N1CCOCC1)C12CCC3CC(CC(C3)C1)C2 35.5 µM [inhibitor, single point], CCN(CC)S(=O)(=O)c1ccc(OC)c(NC(=O)c2cc(=O)[nH]c3ccccc23)c1 25.1 µM [inhibitor, single point], COC(=O)C1CCN(CC(=O)Nc2ccccc2Sc2ccccc2)CC1 39.8 µM [inhibitor, single point], O=C(Oc1c(Cl)cc(Cl)c2cccnc12)N1CCCCC1 31.6 µM [inhibitor, single point], CC1=CC[C@@]2(CO)COC(c3ccccc3O)C1C2 (some centres undefined) 22.4 µM [inhibitor, partial curve], O=C(CSc1nnc2n1CCCN2C(=S)Nc1ccc(Cl)cc1)c1ccccc1 25.1 µM [inhibitor, single point], CCCCn1nc2cc(C(=O)NCC3CC3)ccc2c1OCC 25.1 µM [inhibitor, partial curve], CC(C)OC(=O)c1nnn(-c2nonc2N)c1CN1CCc2ccccc2C1 35.5 µM [inhibitor, single point], CC(=O)Nc1ccc(/C(C)=N/NS(=O)(=O)c2ccccc2)cc1 37.7 µM [inhibitor, single point], CC(C)Nc1oc(-c2cccc3ccccc23)nc1C#N 31.6 µM [inhibitor, partial curve], c1ccc(-c2csc3ncnc(NCC4COc5ccccc5O4)c23)cc1 (centres undefined) 39.8 µM [inhibitor, single point], COc1ccc(N(Cc2ccccc2)S(=O)(=O)c2ccc(C)cc2)cc1 12.6 µM [inhibitor, partial curve], CC(=O)c1ccc(NC(=S)Nc2ccn(Cc3ccc(Br)cc3)n2)cc1 37.7 µM [inhibitor, single point], COc1ccc(OCCNc2cc(N3CCCCC3)ccc2[N+](=O)[O-])cc1 1.58 µM [inhibitor, partial curve, poor fit], COc1ccc(/C=N/NC(=O)c2ccc(Cl)c(S(N)(=O)=O)c2)cc1OCC(N)=O 37.7 µM [inhibitor, single point], CCCCCCNC(=O)CCCCCNS(=O)(=O)c1ccc(Br)cc1 39.8 µM [inhibitor, single point], CCS(=O)(=O)Nc1cccc(C2=NN(S(=O)(=O)CC)C(c3ccccc3)C2)c1 (centres undefined) 39.8 µM [inhibitor, single point], CC(=O)Nc1ccc(NC(=O)c2ccc(NS(=O)(=O)c3cc(C(C)(C)C)ccc3C)cc2)cc1 28.2 µM [inhibitor, partial curve], CC1CCC(N2CCN(S(C)(=O)=O)CC2)CC1 (centres undefined) 39.8 µM [inhibitor, single point]
